# Assay results reported in the supplement of paper PMC11417369.
# ± gives the standard deviation of the averaged measurements. This is one part of the list.
# System: PfAP2-EXP AP2 domain (GST-tagged)
# Experiment: gcPBM binding intensity (ln(normalized median fluorescence intensity)); higher = stronger DNA binding
# Summary of the method: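 Alexa488 anti-GST antibody, scanned at 488 nm, detected GST-tagged P. falciparum DNA-binding domains that had been expressed in E. coli and incubated for 1 h on an Agilent 4 × 180k array. The array carried primer-extended double-stranded 36-bp intergenic genomic probes and negative controls. Binding intensity is the highest Masliner-normalised natural-log median intensity across replicate spots of either orientation of each probe.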
row,Sequence,gcPBM binding intensity (ln)
1,ATGAATATAAAATATACACACTTATATATCGAATGA [CACACA_site6240],8.12 ± 0.5
2,TACATATGGCACATATGTACACACGTATAGATAATA [XGTACX_site4123],8.79 ± 0.39
3,TTTTATTTTTTCTCACGTACAAATATATAATTTTTT [XGTACX_site6952],8.64 ± 0.29
4,AATATATCCTATTCGAACAAAAATACATGCACATAT [CACACA_negctrl_site1058],8.93 ± 0.14
5,TAAATATATGCATATACACACAACAAAAAAATATAT [CACACA_site2341],8.94 ± 0.42
6,TCTCAGTAAATTAAATGTACATAAGGGAGGAACTAT [XGTACX_site8045],8.78 ± 0.36
7,TTGTGGATTTTGTGCGCACACACATGCAAAAAGAAA [CACACA_site1147],9.29 ± 0.28
8,CACAGACATATATATACACACTTTTATTTAAATAAC [CACACA_site4962],8.72 ± 0.46
9,TTTTTGTATCCTTCTTCTTTTTCCAGACTACATTAT [XGTACX_negctrl_site216],9.11 ± 0.52
10,AAAAAAAAAATGTGCACACGCGTACACCCAAAAAAA [CACACA_site5149],8.72 ± 0.28
11,TATAAAAATAATATTACACACATGTAAAATGGCTGT [CACACA_site5755],8.38 ± 0.34
12,ATATATGCATATTATACACACATATGTATATACATT [CACACA_site965],8.84 ± 0.46
13,AAACTGTCGCTCATAAAGAAGAATGAAATACATTAA [TGCATGCA_negctrl_site60],8.37 ± 0.4
14,ACCCATGATTGTTACAGTACTCTACTTTCTAATATA [XGTACX_site98],8.96 ± 0.46
15,TGGAGGTCAGTTCACAGTACCCAGGAAATCTACGGA [XGTACX_site1995],8.61 ± 0.5
16,AAAAAAAAAAAAAATGCACACAATGGCTAGCTGTAC [CACACA_site2273],8.595 ± 0.078
17,TTTTCTGTATATTGTGTGCACACAATTAACAAAAAA [GTGCAC_site9817],8.7 ± 0.16
18,ATATTGACAAATATTACACACATATATAAATATGTA [CACACA_site7835],8.22 ± 0.47
19,CCATAGATATTTTATACACACATATAACATATTAAT [CACACA_site6312],8.55 ± 0.52
20,ATATAATATTACACAAGTACAAAAATTAATACTAAA [XGTACX_site482],8.39 ± 0.32
21,ATTTATTTTAATATATGTACATATATTTTTTTATTA [XGTACX_site3389],8.55 ± 0.26
22,ATTTGAAATGCATGAACACACACAGCTATAAATGCA [CACACA_site8229],8.71 ± 0.3
23,CGTTATTATCCACATACACACAGGAATAAAAAATTA [CACACA_site2883],8.7 ± 0.61
24,TAGTAATATATATTTTGTACATAAAATAATATATAA [XGTACX_site7971],8.35 ± 0.35
